Measured values taken from PubChem BioAssay AID760 (NMMLSC, 2007).
Screen size: about 190,000 compounds; about 360 (0.19%) were called active. The inconclusive results got no clear call from the source; some entries with a clear call stand among them for comparison.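 Rule for the calls: active = GTP binding activity at least 20 points away from 100%, either lowered or raised; inconclusive = signal likely due to the compound's own green fluorescence; inactive = the rest.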

Biological target: Ras-related protein Rab-2A (Canis lupus familiaris) (UniProt P61105)
Assay: Rab2 wt fluorescent GTP binding changes, either direction – biochemical, dog, bead-based flow cytometry, multiplex, primary screen (AID 760);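 note: 0% = beads with excess unlabeled GTP and 100% = no-compound control corrected for plate trend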
Details: GST-Rab2 wt beads, Bodipy-GTP binding, at 10 µM

GTP binding activity, active:
O=C(CN1C(=O)S/C(=C/c2cccnc2)C1=O)N1CCOCC1 70%
COC(=O)c1ccc(COc2ccccc2/C=N/Nc2cccc(C(=O)O)c2)cc1 128% [activator]
Cc1ccc(S(=O)(=O)c2cc3c(=O)n4ccccc4nc3n(C)c2=N)cc1 78%

GTP binding activity, inactive:
COC(=O)c1sccc1NC(=S)N1C(C)CCCC1C (configuration not stated) 95%
CN(C)S(=O)(=O)c1cccc(-c2nnc(SCCNCCO)n2-c2ccc(F)cc2)c1 96%
CCN(CC)S(=O)(=O)c1cc(NC(=O)CCCOc2ccc(C(C)=O)cc2)ccc1C 100%
Cc1c(CCC(=O)O)c(=O)oc2cc3occ(-c4ccc(F)cc4)c3cc12 81%
O=C(N/N=C/c1ccc([N+](=O)[O-])o1)c1cn(-c2ccccc2)nc1-c1ccc(Cl)cc1 82%
Cn1ccs/c1=N\C(=O)Nc1ccccc1 102%
Cc1ccc(S(=O)(=O)N2CCC(C(=O)NNC(=O)c3cccnc3)CC2)cc1 101%
COc1ccc(N=C2SC(C(=O)N3CCN(c4ccccc4)CC3)CC(=O)N2C)cc1 (configuration not stated) 98%
Cc1nn(-c2ccc(F)cc2)c(C)c1/C=C/C(=O)N1CCNC(=O)C1 100%
Cc1ccc(-n2c(=O)[nH]c3c(oc4ccccc43)c2=O)cc1 117%
COc1ccc(C(NC(=O)C2CCCCC2)c2c(O)ccc3ccccc23)cc1 (configuration not stated) 97%
CCn1nc(NC(=O)c2cccs2)c2cc3ccccc3nc21 92%
Cc1ccc(C)c(CSc2ncccc2C(=O)O)c1 114%
CCOC(=O)c1cc(-c2ccc(Cl)cc2)nc2c1c(=O)[nH]c(=O)n2CCOC 96%
CCOC(=O)C1(CCCc2ccccc2)CCN(C(=O)C2=C(C)OCCO2)CC1 96%
CC(C)N1CSC(=S)N(Cc2ccccc2)C1 97%
CCOC(=O)N1CCN(C(=O)CCl)CC1 95%
CCOC1Cc2ccccc2N(C(N)=O)c2ccccc21 (configuration not stated) 95%
CCOc1ccc(Nc2nnc(Cc3ccc(OC)cc3)c(=O)[nH]2)cc1 96%
N/C(=N\OC(=O)c1cccc(Br)c1)c1ccccc1 92%
Cc1ccc(S(=O)(=O)N2CCC(=O)N(C(COCc3cccc(C(F)(F)F)c3)Cc3ccccc3)CC2)cc1 (configuration not stated) 98%

GTP binding activity, inconclusive:
CCC(Sc1nc(=O)cc(N)n1CCc1ccccc1)C(=O)Nc1cc(C)on1 (configuration not stated) 102%
CCOC(=O)c1sc(NCc2ccco2)c(-c2nc3ccccc3s2)c1N 112%
Cc1ccc(C2=NN(C3=NN=C(N)Cc4ncnn43)C(O)(C(F)(F)F)C2)cc1 (configuration not stated) 95%
CCn1cc(CNC(=O)c2cc(COc3ccc(F)cc3Cl)on2)cn1 85%
CC1(C)CC(CCNS(=O)(=O)c2ccccc2)(c2ccccc2)CCO1 (configuration not stated) 104%
O=C(Nc1ccc2sc3ccccc3c(=O)c2c1)c1ccccc1Cl 86%
Cc1ccc(C(=O)Nc2ccc3c(c2)CCC3)o1 106%
C=CCNC(=O)/C(=C\c1ccc(OC)cc1)NC(=O)c1ccc([N+](=O)[O-])cc1 93%
Cc1cc(NC(=O)c2cccs2)ncc1NC(=O)c1cccc(F)c1 95%
CSc1nc(N2CCOCC2)c2sccc2n1 92%
CCCN1C(=O)/C(=C/c2c(NCCCOCC)nc3c(C)cccn3c2=O)SC1=S 104%
COC(=O)c1cc(OC)c(OC)cc1NC(=O)Nc1cccc(C(C)=O)c1 90%
O=C(O)CCCCCNS(=O)(=O)c1cccc2c1C(=O)c1ccccc1C2=O 70%
O=C(COc1ccc(F)cc1)N1CCC(c2ccccc2)C1 (configuration not stated) 100%
CCOC(=O)N1CCN(C(=O)/C(=C/c2cccc3ccccc23)NC(=O)c2ccc(OC)cc2)CC1 103%
O=C(c1cccc(OC(F)F)c1)N1CCN(c2ncccn2)CC1 104%
CCN1C(=O)/C(=C/c2cnn(CC)c2C)SC1=S 105%
COc1cccc(NC(=O)CN(C)C(C)C(=O)Nc2ccc(C(C)=O)cc2)c1 (configuration not stated) 95%
O=C(NCCN1CCOCC1)c1csc2c1CCCCC2 104%
Cc1cccc(NC(=O)[C@H](Cc2ccccc2)NC(=O)OCc2ccccc2)c1 98%
CCCc1cc(-n2ccnc2)n2c(nc3ccccc32)c1C#N 134%
COc1ccnc(Nc2ccc(C)c(C)c2)c1C#N 102%
COc1ccc(Oc2cnc3ccccc3n2)cc1 92%
CC(C)Nc1nnc(SCC(=O)Nc2ccc3c(c2)C(=O)c2ccccc2C3=O)s1 81%
COc1ccc(/C=C/C(=O)Nc2ccc3nc4n(c(=O)c3c2)CCCC4)cc1 85%
Cc1cc(NC(=O)CN2CCN(Cc3ccccc3)CC2)nc2c1c(=O)oc1ccccc12 91%
COc1cc(C(=O)Nc2nc3ccc4nc(C)sc4c3s2)cc(OC)c1OC 103%
O=C(N/N=C/c1ccccn1)c1cccc(S(=O)(=O)Nc2ccccc2Cl)c1 85%
CO/N=C/C(=N\Nc1cc(OC)cc(OC)c1)C(=O)c1ccccc1 91%
CCN(CC)c1ccc(/C=c2/sc3nnc(-c4ccccc4C)n3c2=O)cc1 210%
COc1cc(-c2nc(-c3ccncc3)no2)cc(OC)c1OC 101%
CC1Sc2ccccc2N(CC(=O)N(C(C)C)C(C)C)C1=O (configuration not stated) 94%
Cc1cccc(NC(=S)N(CCCN2CCOCC2)Cc2ccccn2)c1 104%
COc1ccc(N(C)C(=O)CCS(=O)(=O)c2cccc3nonc23)cc1 90%
CCOC(=O)C1=C2SCCN2C(=O)C(C#N)C1(C)C (configuration not stated) 107%
O=C(NC(=S)Nc1cc(C(F)(F)F)ccc1N1CCOCC1)c1sc2ccccc2c1Cl 100%
CCOc1ccccc1N1C(=O)CC(N(O)c2ccccc2)C1=O (configuration not stated) 102%
CC(C)CCNC(=O)CCCn1c(=O)[nH]c2ccc(Br)cc2c1=O 102%
Cc1ccc(SCC(=O)N2CCc3ccccc32)cc1 95%
Cn1ncc(Cl)c1C(=O)Nc1nc2ccc(Cl)cc2s1 90%
O=C(CS(=O)(=O)Cc1ccccc1)N1CCc2ccccc21 103%
Cc1nc2nc(C)c(CCC(=O)NC(C)c3ccc4c(c3)OCCO4)c(C)n2n1 (configuration not stated) 104%
Cc1ccc2c(c1)c(N=NC(N)=O)c(O)n2C 85%
CC(=O)c1c(C)[nH]c(C(=O)Nc2cccnc2)c1C 95%
C/C(CC(=O)Nc1cccc(C(F)(F)F)c1)=N\NC(=O)C1CCCCC1 95%
O=C(/C=C/c1ccccc1)NC(=S)Nc1ccc(CN2CCOCC2)cc1 100%
O=C(NCCCn1ccnc1)C(Cc1ccccc1)N1C(=O)c2ccccc2C1=O (configuration not stated) 90%
O=c1oc2c3c4c(cc2c2c1CCC2)OCCN4CCC3 90%
CCOC(=O)c1c(C)[nH]c(=S)c(C#N)c1-c1ccc(Cl)cc1 93%
Cc1ccc(NC(=O)COC(=O)c2cccc3c2C(=O)c2ccccc2C3=O)c(C)c1 91%
CC(C)CNC(=S)N1CCC(NC(=O)C23CC4CC(CC(C4)C2)C3)CC1 101%
O=C(Nc1ccc(-c2nc3ccc(NC(=O)c4cccs4)cc3[nH]2)cc1)c1cccs1 81%
CS(=O)(=O)N1N=C(c2ccccc2)CC1c1ccc2c(c1)OCO2 (configuration not stated) 137%
Brc1ccc(CSc2ccc3nnc(-c4ccccn4)n3n2)cc1 87%
Cc1ccc2c(c1)-c1c(cnn1CC(=O)Nc1ccccc1N1CCN(C)CC1)CO2 102%
CCCNC(=O)C(=O)NCc1ccccn1 58%
CN1CCCC1=Nc1c2c(nc3ccccc13)N(C)CC2 104%
CNC(=S)N1CCc2cc(OC)c(OC)cc2C1COc1ccc(F)cc1 (configuration not stated) 94%
O=C(CSc1nc2ccccc2c(=O)n1-c1ccccc1)N/N=C/C=C/c1ccccc1[N+](=O)[O-] 94%
O=[N+]([O-])c1cc(S(=O)(=O)Nc2cccc(C(F)(F)F)c2)ccc1-n1nnc2ccccc21 89%
C=CCNCCCCOc1ccccc1-c1ccccc1 102%
O=C(CCn1c(=O)oc2ccccc21)N1CCN(c2ccccc2F)CC1 103%
COc1cc(/C=N/NC(=O)c2csc3c2CCCC3)cc(OC)c1O 93%
COCCn1c(C)cc(C(=O)CSc2nnc(-c3cccnc3)n2-c2ccccc2F)c1C 100%
COc1ccc(CNC(=O)COC(=O)c2ccc3c(c2)OCCO3)cc1 102%
Cc1cc(C)n2ncc(C(=O)NCc3cccnc3)c2n1 103%
O=S(=O)(c1ccccc1)N(CC1CO1)c1ccccc1 (configuration not stated) 94%
CC1CN(c2nn3c(=O)c4ccccc4nc3c3ccccc23)CC(C)O1 (configuration not stated) 88%
